# Laboratory results as given in PubChem BioAssay (NCATS).
# Inconclusive means that the source gave no clear call. Such entries were picked first, then a sample of the others. For some of these results: Potencies of inconclusive entries are left out as doubtful fits. Active and inactive are the calls of the source. Unless noted, calls follow the shape of the dose curve; as a rule, active = well fitted curve in the direction sought with a large enough effect; inconclusive = small, poorly fitted or top-dose-only effect, or another doubt; inactive = no such curve, though single readings can be large; an effect the other way counts as inactive or inconclusive.
# Experiments:
# [1] = AP1 Signaling Pathway (AID 357; active = well fitted curve in either direction with a large enough effect, not every such curve was filed as active; inconclusive = small, poorly fitted or top-dose-only effect, or another doubt;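 also: ME-180 reporter cells stimulated with EGF at its EC50 level; top concentration of the series differs between compounds; % is scaled to controls: 0 for no effect and ±100 for the full control effect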); conditions: ME-180 AP-1-bla reporter, EGF-induced, beta-lactamase ratio, 5 h
# Summary of the method: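 A ratiometric CCF4 readout (405 nm excitation; 460 and 530 nm emission) quantified AP-1-driven beta-lactamase in ME-180 cells after 5 h with compound and EC50 EGF; AC50 values were derived for activators and inhibitors.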
# [2] = Stat Signaling Pathway (AID 446; active = well fitted curve in either direction with a large enough effect, not every such curve was filed as active; inconclusive = small, poorly fitted or top-dose-only effect, or another doubt;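 also: ME-180 cervical cancer cells given 40 pM IL-6 alongside compound; SIE-controlled beta-lactamase reporter measured as 460/530 nm FRET emission ratio; top concentration of the series differs between compounds; % is scaled to controls: 0 for no effect and ±100 for the full control effect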); conditions: ME-180 SIE beta-lactamase reporter, IL-6 stimulated, 5 h
# Summary of the method: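 Overnight-plated ME-180 cells bearing a STAT Inducible Element beta-lactamase reporter; 5 h co-exposure to compound and 40 pM IL-6; values normalized to 300 pM IL-6 and 125 nM JAK inhibitor controls.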
# [3] = qHTS Assay for Identification of Small Molecule Antagonists for NFkB Signaling Pathway (AID 895; active = well fitted inhibition curve with a large enough effect in the signal ratio, with a control signal flat, not every such curve was filed as active; inconclusive = small, poorly fitted or top-dose-only effect, or effect the other way, or a change in a side signal; the % refers to the signal ratio; also: potency is read from the fitted curve at half-maximal effect; as to activity change, negative = inhibition: % is scaled to controls: 0 for no effect and ±100 for the full control effect); conditions: NFkB beta-lactamase reporter cells, FRET ratio 460/530, stimulated with 10 pM TNF alpha; activity change, negative = inhibition: at 38.3 µM (top of the series)
# Summary of the method: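 ME-180 NFkB-bla cells (beta-lactamase under NFkB response element), plated overnight, treated with compound then 10 pM TNF alpha (about EC50) for 5 hrs at 37 C. LiveBLAzer FRET read at 460/530 nm emission, 405 nm excitation.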
# [4] = target: Endonuclease 4 (Escherichia coli (strain K12)) (UniProt P0A6C1); assay: Counterscreen for APE1 Inhibitors: qHTS Validation Assay for Inhibitors of Endonuclease IV (AID 1708); also: potency is read from the fitted curve at half-maximal effect; conditions: E. coli endonuclease IV, DNA cleavage fluorescence; series mostly up to 57.1 µM
# Summary of the method: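 Read-out: fluorescence rise (ex 525/em 598 nm) from incision of a TAMRA/BHQ-2 double-stranded THF abasic-site substrate (50 nM), measured kinetically; third-minus-first read difference gave reaction progress. Enzyme 2 nM.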
# [5] = qHTS for differential inhibitors of proliferation of Plasmodium falciparum line GB4 (AID 1816); conditions: Potency: Plasmodium falciparum GB4 proliferation inhibition; series mostly up to 28.7 µM;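 also: potency is read from the fitted curve at half-maximal effect; parasite growth measured after 72 h incubation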
# [6] = Validation screen for small molecules that induce DNA re-replication in MCF 10A normal breast cells (AID 463097); conditions: MCF 10A cells, DNA re-replication phenotype imaging; series mostly up to 46.1 µM; also: potency is read from the fitted curve at half-maximal effect; nearly all actives have a fitted effect of over 60% in size
# Summary of the method: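 Image-based qHTS: normal breast cells are incubated with compound for 48 hr, stained with Hoechst, and scanned for total nuclear fluorescence. Compounds raising the fraction of nuclei with elevated DNA content count as re-replication inducers.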
# [7] = target: ATPase family AAA domain-containing protein 5 (Homo sapiens) (UniProt Q96QE3); assay: Validation screen for small molecules that inhibit ELG1-dependent DNA repair in human embryonic kidney (HEK293T) cells expressing luciferase-tagged ELG1 (AID 493107); conditions: HEK293T ELG1-luciferase level, luminescence, 5-fluorouridine co-treatment, 16 h; series mostly up to 46.1 µM; also: potency is read from the fitted curve at half-maximal effect; nearly all actives have a fitted effect of over 70% in size
# Summary of the method: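 ELG1-luciferase HEK293T reporter; 5-fluorouridine + compound/DMSO, 16 hr, 37 °C, 5% CO2; ONE-Glo 30 min RT; luminescence read, qHTS format.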
# [8] = Nrf2 qHTS screen for inhibitors: Validation (AID 493153; active = well fitted inhibition curve with a large enough effect in the main read-out, with a control signal flat, not every such curve was filed as active; inconclusive = small, poorly fitted or top-dose-only effect, or effect the other way, or a change in a side signal; inactive = no such curve, though single readings can be large or run the other way; also: potency is read from the fitted curve at half-maximal effect; as to activity change, negative = inhibition: % of control where 0% means no effect); conditions: A549 ARE-Fluc reporter, luciferase luminescence, 18-24 h; series mostly up to 46.1 µM
# Summary of the method: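 Concentration-response test in A549 ARE_Fluc reporter cells (5% FBS OPTI-MEM), compound exposure 18-24 h at 37°C, 5% CO2. Cell viability measured first by CellTiter-Fluor fluorescence; ARE-driven luciferase luminescence then measured as Nrf2 activity.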
# [9] = test system: Zika virus NS2B-NS3 protease (linked); assay: 384 well plate NINDS AMC confirmatory qHTS for Zika virus inhibitors (AID 1347163); conditions: Recombinant NS2B-NS3 protease, Ac-VKTGKR-AMC fluorescence; series mostly up to 100 µM; also: potency is read from the fitted curve at half-maximal effect; nearly all actives have a fitted effect of over 50% in size
# Summary of the method: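 Enzyme (5, 30 or 60 nM final) first met test compounds for ~15 min. The AMC-tagged peptide Ac-VKTGKR-AMC followed at 30 microM. Fluorescence was then recorded at 25 min and scaled against no-enzyme and no-inhibitor wells.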
# [10] = test system: Zika virus NS2B-NS3 protease (linked construct); assay: 384 well plate NINDS Rhodamine confirmatory qHTS for Zika virus inhibitors (AID 1347164); conditions: rhodamine-110 peptide substrate fluorescence; series mostly up to 100 µM;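 also: fluorescence from protease cleavage of Ac-LKRR-rhodamine 110 substrate; potency is read from the fitted curve at half-maximal effect; nearly all actives have a fitted effect of over 65% in size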
# Summary of the method: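 Enzyme (final 5/30/60 nM) + cpd (DMSO), ~15 min; add Ac-LKRR-Rd 10 microM final; 25 min RT, dark; FI ex 485/em 538; normalized to no-enzyme, no-inhibitor ctrls; aprotinin intraplate ctrl.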
# [11] = target: Mitogen-activated protein kinase 10 (Mus musculus) (UniProt Q61831); assay: JNK3 AlphaScreen Assay (AID 530; active = well fitted curve in either direction with a large enough effect, not every such curve was filed as active; inconclusive = small, poorly fitted or top-dose-only effect, or another doubt;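 also: kinase came from lysate of stimulated human HepG2 cells; signal reports phosphorylation of biotinylated GST-cJun 1-79 at Ser73 with 10 µM ATP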; also: potency is read from the fitted curve at half-maximal effect; as to activity change, negative = inhibition: % is scaled to controls: 0 for no effect and ±100 for the full control effect); conditions: JNK3 lysate, c-Jun phosphorylation; activity change, negative = inhibition: at 57.1 µM (top of the series)
# Summary of the method: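 HepG2 lysate (IL-1b/TNFa pre-activated) + biotin-GST-cJun 1-79 + anti-pSer73 cJun; cpd titration, 15 min RT; ATP 10 uM start; Tris pH 7.6, MgCl2, DTT, vanadate; beads in EDTA buffer; AlphaScreen.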
# [12] = qHTS of pediatric cancer cell lines to identify multiple opportunities for drug repurposing: Confirmatory screen for U-2 OS cells (AID 1347122); conditions: U-2 OS osteosarcoma cell viability; series mostly up to 45.9 µM; also: nearly all actives have a fitted effect of over 65% in size; also: potency is read from the fitted curve at half-maximal effect
# Summary of the method: (§1)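 Viability after 48 h compound treatment at 37C, 500-1,000 cells/well, read as ATP luminescence with CellTiter-Glo. Primary screens used 11-point (MIPE, 0.78 nM-46 µM) or 8-point (NPC, 0.59 nM-46 µM) final concentrations; follow-up screens used 11-point dilutions.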
# [13] = qHTS of pediatric cancer cell lines to identify multiple opportunities for drug repurposing: Confirmatory screen for Rh18 cells (AID 1347125); conditions: Rh18 rhabdomyosarcoma cells, viability; series mostly up to 45.9 µM; also: potency is read from the fitted curve at half-maximal effect; nearly all actives have a fitted effect of over 55% in size
# Summary of the method: as §1
# [14] = qHTS of pediatric cancer cell lines to identify multiple opportunities for drug repurposing: Confirmatory screen for Rh30 cells (AID 1347126); conditions: Rh30 rhabdomyosarcoma cell viability; activity change, negative = cytotoxic: at 45.9 µM (top of the series); also: potency is read from the fitted curve at half-maximal effect; nearly all actives have a fitted effect of over 55% in size
# Summary of the method: as §1
# [15] = Primary qHTS for inhibitors of La Crosse Virus (LACV) - induced cell death in SH-SY5Y cells (AID 1508616); conditions: SH-SY5Y LACV cytopathicity rescue, ATP luminescence, 6 d; series mostly up to 4.29 µM; also: potency is read from the fitted curve at half-maximal effect;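 as to activity change: top concentration of the series differs between compounds; 0% = infected DMSO wells and 100% = uninfected DMSO wells; higher means more rescue of cells from virus-induced death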
# Summary of the method: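 Cytopathicity rescue screen: compounds pinned onto SH-SY5Y cells, which are then infected with LACV (MOI 0.01) and held 6 days at 37C. Percent activity is scaled between infected DMSO control and uninfected DMSO control.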
# [16] = target: Protein phosphatase 1D (Homo sapiens) (UniProt O15297); assay: RapidFire Mass Spectrometry qHTS Assay for Modulators of WT P53-Induced Phosphatase 1 (WIP1) (AID 1347424); conditions: WIP1 dephosphorylation of phosphopeptide, RapidFire MS; series mostly up to 63 µM; also: potency is read from the fitted curve at half-maximal effect;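 as to activity change, negative = inhibition: plate controls were DMSO wells for no effect and GSK830371 inhibitor control at 10 µM for full effect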
# Summary of the method: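 RapidFire MS readout of dephosphorylated VEPPL-S-QETFS product, with 1 uM isotope-labelled peptide standard. Reaction: 10 nM WIP1, 2 uM phosphopeptide substrate, 5 min, room temperature, after 1 h compound preincubation; stopped with 0.5% formic acid.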
# [17] = Quantitative High-Throughput drug screen in 47 multiple myeloma cell lines against the NCATS MIPE library collection: ARD_JJKsccE7 cell viability assay (AID 1918929; also: potency is read from the fitted curve at half-maximal effect); conditions: ARD myeloma cell line viability, CellTiter-Glo, 48 h; series mostly up to 45.8 µM
# Summary of the method: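 We plated 500 myeloma cells per well, pinned in MIPE 4.0 compounds, and incubated for 48 hours at 37C. ATP was then quantified with CellTiter-Glo, with DMSO and media-only wells defining 100% and 0%.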
# [18] = test system: Zika virus NS2B-NS3 protease (linked construct); assay: Confirmatory screen NINDS AMC qHTS for Zika virus inhibitors (AID 1347152); conditions: Purified linked NS2B-NS3, AMC substrate fluorescence; series mostly up to 56.6 µM;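 also: AMC fluorescence gain from cleaved Bz-Nle-KRR-AMC substrate over 15 min; top concentration of the series differs between compounds; 0% = no-inhibitor control and -100% = no-enzyme control; nearly all actives have a fitted effect of over 70% in size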
# Summary of the method: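 Enzyme (1 nM, linked construct) was preincubated with compound for 15 minutes at room temperature in 10 mM Tris-HCl pH 8.0 with 0.01% Tween 20. Bz-Nle-Lys-Arg-Arg-AMC was then added to 10 microM, and AMC fluorescence was recorded immediately and after 15 minutes.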
# [19] = NCATS anti-infectives library activity on HEK293 viability as a counter-qHTS vs the C. elegans viability qHTS (AID 1745854); conditions: HEK293 viability counter-screen; series mostly up to 41.8 µM; also: potency is read from the fitted curve at half-maximal effect
# Summary of the method: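 CellTiter-Glo luminescence, read on a CCD imager, scored viability of HEK293 cells after 24 hr compound exposure at 37C. Library tested in several concentrations, 1:5 steps, up to 41.7 uM; digitonin served as control.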
# [20] = NCATS anti-infectives library activity on the primary C. elegans qHTS viability assay (AID 1745855; calls by dose curve; also: potency is read from the fitted curve at half-maximal effect); conditions: C. elegans worm area imaging, day 7; series mostly up to 41.8 µM
# Summary of the method: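 Titration-based screen in worms: eggs hatched overnight in M9, L1 larvae fed TOP10 capsules in S medium with compound, incubated 21 °C for 7 days; fluorescent objects gated by size and intensity at days 0, 3 and 7.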
# Tags tell the direction and shape of the fitted curve or compound fluorescence and quenching.
# UniProt Q96QE3, sequence (Q96QE3 whole entry, looked up, the tested form may be a part): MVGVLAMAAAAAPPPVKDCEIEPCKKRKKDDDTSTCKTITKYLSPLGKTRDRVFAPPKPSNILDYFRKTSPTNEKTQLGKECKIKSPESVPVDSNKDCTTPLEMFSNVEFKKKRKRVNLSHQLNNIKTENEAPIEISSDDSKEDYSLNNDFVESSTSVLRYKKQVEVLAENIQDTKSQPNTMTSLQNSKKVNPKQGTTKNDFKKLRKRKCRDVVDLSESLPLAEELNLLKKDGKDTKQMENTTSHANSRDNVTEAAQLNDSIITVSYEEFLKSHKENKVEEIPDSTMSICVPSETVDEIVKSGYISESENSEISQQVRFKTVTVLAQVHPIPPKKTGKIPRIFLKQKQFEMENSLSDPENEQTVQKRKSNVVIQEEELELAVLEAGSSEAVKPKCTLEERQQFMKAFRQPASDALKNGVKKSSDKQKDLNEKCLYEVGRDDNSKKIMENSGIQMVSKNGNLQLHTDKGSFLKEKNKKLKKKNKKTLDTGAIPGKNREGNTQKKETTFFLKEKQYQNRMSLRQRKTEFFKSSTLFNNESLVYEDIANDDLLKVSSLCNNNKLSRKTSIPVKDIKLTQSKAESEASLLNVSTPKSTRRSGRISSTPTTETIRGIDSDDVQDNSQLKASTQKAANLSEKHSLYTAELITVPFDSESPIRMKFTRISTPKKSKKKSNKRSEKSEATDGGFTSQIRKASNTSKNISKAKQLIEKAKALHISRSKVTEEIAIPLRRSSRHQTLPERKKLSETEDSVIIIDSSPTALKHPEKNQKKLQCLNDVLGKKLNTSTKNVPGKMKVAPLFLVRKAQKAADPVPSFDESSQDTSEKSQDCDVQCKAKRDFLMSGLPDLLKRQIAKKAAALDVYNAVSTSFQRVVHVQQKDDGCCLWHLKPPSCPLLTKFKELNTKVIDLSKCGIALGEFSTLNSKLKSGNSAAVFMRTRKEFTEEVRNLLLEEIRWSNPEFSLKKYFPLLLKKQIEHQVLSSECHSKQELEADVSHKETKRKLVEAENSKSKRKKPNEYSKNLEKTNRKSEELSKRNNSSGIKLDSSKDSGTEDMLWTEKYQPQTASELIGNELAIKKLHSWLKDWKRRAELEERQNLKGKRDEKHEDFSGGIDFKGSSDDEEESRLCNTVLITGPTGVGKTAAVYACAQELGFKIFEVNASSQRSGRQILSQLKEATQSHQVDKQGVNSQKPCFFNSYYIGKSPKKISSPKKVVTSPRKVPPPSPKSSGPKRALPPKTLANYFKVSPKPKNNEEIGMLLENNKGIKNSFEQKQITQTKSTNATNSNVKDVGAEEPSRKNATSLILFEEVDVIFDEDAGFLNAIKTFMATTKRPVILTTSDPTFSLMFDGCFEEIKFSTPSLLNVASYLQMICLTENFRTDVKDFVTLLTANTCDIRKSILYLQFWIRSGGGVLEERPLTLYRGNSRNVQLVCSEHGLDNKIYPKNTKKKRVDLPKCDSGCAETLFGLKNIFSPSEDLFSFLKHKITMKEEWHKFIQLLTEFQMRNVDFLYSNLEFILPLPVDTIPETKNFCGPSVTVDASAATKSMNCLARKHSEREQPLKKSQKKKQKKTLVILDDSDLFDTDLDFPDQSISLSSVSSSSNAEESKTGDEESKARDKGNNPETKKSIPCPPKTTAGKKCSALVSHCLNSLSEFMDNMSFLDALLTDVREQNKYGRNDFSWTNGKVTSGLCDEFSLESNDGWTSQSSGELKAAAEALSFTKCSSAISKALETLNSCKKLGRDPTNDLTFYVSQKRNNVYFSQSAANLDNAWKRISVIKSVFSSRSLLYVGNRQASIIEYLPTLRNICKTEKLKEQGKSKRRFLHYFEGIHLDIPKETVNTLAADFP
# UniProt O15297, sequence (O15297 whole entry, looked up): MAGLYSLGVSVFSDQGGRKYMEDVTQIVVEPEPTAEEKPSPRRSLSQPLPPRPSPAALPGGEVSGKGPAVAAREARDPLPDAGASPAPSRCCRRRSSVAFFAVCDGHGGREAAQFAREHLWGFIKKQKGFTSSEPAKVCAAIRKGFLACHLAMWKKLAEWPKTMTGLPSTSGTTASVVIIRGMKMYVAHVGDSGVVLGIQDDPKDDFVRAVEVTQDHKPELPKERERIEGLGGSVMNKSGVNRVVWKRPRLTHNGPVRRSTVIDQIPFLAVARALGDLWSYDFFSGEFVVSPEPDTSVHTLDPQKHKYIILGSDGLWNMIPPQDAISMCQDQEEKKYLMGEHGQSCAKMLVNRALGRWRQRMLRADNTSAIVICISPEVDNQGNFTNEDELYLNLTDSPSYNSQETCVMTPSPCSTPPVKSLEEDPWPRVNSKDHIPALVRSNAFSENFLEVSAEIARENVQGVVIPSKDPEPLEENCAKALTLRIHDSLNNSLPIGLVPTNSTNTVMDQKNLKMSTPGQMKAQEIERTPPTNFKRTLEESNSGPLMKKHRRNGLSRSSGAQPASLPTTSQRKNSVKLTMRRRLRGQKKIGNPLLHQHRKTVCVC
structure (smiles),measurement,setting,value
CN(C)c1cc2c(Nc3ccc4c(cnn4Cc4ccccc4)c3)ncnc2cn1,"activity change, negative = inhibition",[1]; at 38 µM (top of the series),active: -107%
same,"activity, negative = inhibition",[2]; at 38 µM (top of the series),inconclusive: -31.2% [inhibitor]
same,Potency,[3],"inconclusive [inhibitor, partial curve, poor fit]"
same,Potency,[4],"inconclusive [inhibitor, partial curve]"
same,Potency,[5],active: 3.16 µM
same,Potency,[6],active: 3.16 µM
same,Potency,[7],"inconclusive [inhibitor, single point]"
same,Potency,[8],"inconclusive [falling, partial curve]"
CCCCCCCOc1cc2c(cc1/C(C)=C/c1ccc(C(=O)O)cc1)C(C)(C)CCS2(=O)=O,Potency,[9],"inconclusive [inhibitor, full curve, poor fit]"
same,Potency,[10],"inconclusive [inhibitor, full curve, poor fit]"
C(=C\c1ccccc1)/CN1CCN(C(c2ccccc2)c2ccccc2)CC1,"activity change, negative = inhibition",[3],inconclusive: -8.32%
same,Potency,[4],"inconclusive [inhibitor, full curve, poor fit]"
same,Potency,[5],active: 8.91 µM
same,Potency,[6],"inconclusive [activator, single point]"
CN1CCc2cccc3c2[C@H]1Cc1ccc(O)c(O)c1-3,Potency,[11],active: 6.31 µM
CCN(CC)CCOc1ccc2c(c1)C(=O)c1cc(OCCN(CC)CC)ccc1-2,Potency,[12],inactive
same,Potency,[13],"inconclusive [cytotoxic, partial curve]"
same,Potency,[14],"inconclusive [cytotoxic, single point]"
same,Potency,[15],"inconclusive [inhibitor, partial curve, poor fit]"
C[C@@H](O[C@H]1OCCN(Cc2n[nH]c(=O)[nH]2)[C@H]1c1ccc(F)cc1)c1cc(C(F)(F)F)cc(C(F)(F)F)c1,Potency,[16],"inconclusive [inhibitor, single point]"
CCN(CC)CCCCNc1ncc2c(n1)N(C)C(=O)N(c1c(Cl)c(OC)cc(OC)c1Cl)C2,Potency,[17],inconclusive
N#CC(c1ccnc(OCc2ccc(CN3CCOCC3)cc2)n1)c1nc2ccccc2s1 (stereo not given),Potency,[18],inactive
same,Potency,[9],"inconclusive [inhibitor, partial curve]"
Cc1cc(C)c(Nc2ccnc(Nc3ccc(C#N)cc3)n2)c(C)c1,Potency,[19],"inconclusive [cytotoxic, single point]"
same,Potency,[20],active: 5.15 µM
CC(O)(C(=O)O)C1CCC2(C)C1CCC1(C)C2CCC2C3(C)CCC(O)C(C)(COC4OC(CO)C(O)C(O)C4O)C3CCC21C (stereo not given),Potency,[18],inactive
same,Potency,[10],active: 12.6 µM
CCOc1cc2ncc(C#N)c(Nc3ccc(F)c(Cl)c3)c2cc1NC(=O)/C=C/CN(C)C,Potency,[20],active: 14.5 µM
O=C(COc1ccc(Cl)cc1)N1CCN(Cc2ccc3c(c2)OCO3)CC1,Potency,[11],inactive
COC[C@H](NC(=O)c1cnc(C)s1)C(=O)N[C@@H](COC)C(=O)N[C@@H](Cc1ccccc1)C(=O)[C@@]1(C)CO1,Potency,[13],active: 0.208 µM
same,Potency,[19],"inconclusive [cytotoxic, full curve, poor fit]"
same,Potency,[17],active: 0.0526 µM
CC[N+](CC)(CC)CCOC(=O)C(C1CCCC1)C1CCCC1,Potency,[16],inactive
Cc1ccc(C(=O)Oc2ccc(C(O)CNC(C)(C)C)cc2OC(=O)c2ccc(C)cc2)cc1 (stereo not given),Potency,[12],"inconclusive [cytotoxic, full curve, poor fit]"
CC(C)COCC(CN(Cc1ccccc1)c1ccccc1)N1CCCC1 (stereo not given),Potency,[7],"inconclusive [activator, single point]"
same,Potency,[8],inactive
same,Potency,[15],inactive
COc1ccc(C[C@H](N)C(=O)N[C@@H]2[C@H](O)[C@H](n3cnc4c(N(C)C)ncnc43)O[C@@H]2CO)cc1,"activity change, negative = inhibition",[1]; at 17.2 µM (top of the series),inconclusive: -105% [inhibitor]
same,"activity, negative = inhibition",[2]; at 17.2 µM (top of the series),inconclusive: -88.3% [inhibitor]
NC(=O)c1cccc2cn(-c3ccc([C@@H]4CCCNC4)cc3)nc12,Potency,[14],"inconclusive [cytotoxic, single point]"
